In all, about 410,000 compounds went through this assay and about 5,000 (1.2%) were called active. This list was built around the results that the source calls inconclusive (neither active nor inactive); the mix of calls is not that of the screen. The call rests on the fitted dose curve; in most records, active means well fitted inhibition curve with a large enough effect; inconclusive means small, poorly fitted or top-dose-only effect; inactive means no such curve, though single readings can be large or run the other way. Potencies of inconclusive entries are doubtful fits and often do not repeat.
Test: qHTS for Inhibitors of TGF-b; further: nearly all actives have a fitted effect of over 65% in size
Settings: HepG2 CAGA-GFP TGF-b/SMAD3 reporter, GFP fluorescence, 18 h, TGF-beta stimulated, 500 pg/mL final; series mostly up to 46.1 µM; activity, negative = inhibition: at the top concentration
Outline: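 HEPG2 CAGA-GFP reporter cells (1000/well, DMEM with 1% FBS) received compounds, then recombinant TGF-beta at 500 pg/mL final for 18 hours at 37 degrees C. Per-cell GFP summed per well was normalised to unstimulated and stimulated DMSO controls before curve fitting.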
On the % scale 0 is the no-effect control and ±100 the full control effect; potency means the concentration at half of the fitted maximal effect; tags describe the fitted curve by direction and shape.

For `NS(=O)(=O)c1ccc(Nc2ccc3cc(S(=O)(=O)N4CCCCC4)ccc3n2)cc1`, which Potency is on record?
Its Potency is inconclusive: 11.2 µM [inhibitor, partial curve].

With `CC(=O)Nc1ccc(NC(=O)c2cc(C)nn2-c2ccccc2)cc1` as the compound, how does the Potency read?
The Potency was inconclusive: 0.447 µM [inhibitor, full curve, poor fit].

With `COC(=O)c1ccccc1N=Nc1c(N)n[nH]c1N` as the compound, how does the Potency read?
Its Potency is inconclusive: 35.5 µM [inhibitor, single point].

Which Potency does the source give for `CC(C)CCNC(=O)/C=C/c1ccc(Br)cc1` here?
Its Potency is inconclusive: 6.31 µM [inhibitor, partial curve, poor fit].

With `Cc1ccc(NC(=O)COC(=O)COc2cccc3c2OC(C)(C)C3)c(C)c1` as the compound, how does the Potency read?
The Potency was inconclusive: 1 µM [inhibitor, partial curve, poor fit].

For `CC(C)(C)c1ccc(Cn2c(=O)cnc3ccccc32)cc1`, which Potency is on record?
Its Potency is active: 10 µM.

Which Potency does the source give for `COc1ccc(N(CCC#N)S(=O)(=O)c2cccc3nsnc23)cc1` here?
Its Potency is inconclusive: 6.31 µM [inhibitor, single point].

For `Cc1ccc(Oc2ccc(S(=O)(=O)NCC(C)(C)N3CCOCC3)cc2)cc1`, which Potency is on record?
Its Potency is inconclusive: 5.62 µM [inhibitor, single point].

Which Potency does the source give for `Cn1nnnc1SCCNCc1ccncc1` here?
Its Potency is inconclusive: 22.4 µM [inhibitor, partial curve, poor fit].

With `COc1ccc(NC(=O)c2c(NC(=O)CNCc3ccco3)sc3c2CCC3)c(OC)c1` as the compound, how does the “activity, negative = inhibition” value read?
The value was inactive: -8.21%.

Which Potency does the source give for `O=S(=O)(NC1CCc2ccccc21)c1ccc(S(=O)(=O)N2CCCC2)cc1` (centres undefined) here?
The Potency was inconclusive: 0.631 µM [inhibitor, full curve, poor fit].

Which Potency does the source give for `COc1cccc2cc(C(=O)C3=C(O)C(=O)N(c4cc(C)on4)C3c3cccs3)oc12` (centres undefined) here?
Its Potency is inconclusive: 11.2 µM [inhibitor, single point].

For `CCN(CC)S(=O)(=O)c1cccc(-c2nnc(SCc3nnc(-c4ccccc4)o3)n2C)c1`, which “activity, negative = inhibition” value is on record?
Its value is inactive: 1.04%.

For `CC(C)N(C(=O)[C@H]1C[C@H](CC(=O)NCc2ccco2)C(=O)N2CCc3c([nH]c4cc(-c5ccco5)ccc34)[C@]12C)C(C)C`, which Potency is on record?
The Potency was inconclusive: 20 µM [inhibitor, single point].

For `O=C(CCl)NCCCN(C(=O)C(Cl)Cl)c1ccc([N+](=O)[O-])cc1`, which Potency is on record?
Its Potency is inconclusive: 35.5 µM [inhibitor, single point].

For `CC[C@]12c3[nH]c4cc(-c5ccco5)ccc4c3CCN1C(=O)[C@@H](CC(=O)NCCCn1ccnc1)C[C@@H]2C(=O)N1CCN(C(=O)c2ccco2)CC1`, which “activity, negative = inhibition” value is on record?
Its value is inactive: -1.62%.

Which Potency does the source give for `COc1ccc(/C=N/OCC(=O)Nc2nc3ccccc3s2)cc1OC` here?
The Potency was inconclusive: 11.2 µM [inhibitor, single point].

With `Cc1onc(-c2ccccc2)c1C(=O)N/N=C/c1cccc(O)c1` as the compound, how does the “activity, negative = inhibition” value read?
The value was inactive: -25.5%.

For `Cc1ccc(NC(=O)COC(=O)c2ccccc2Nc2ccccc2)cc1`, which “activity, negative = inhibition” value is on record?
Its value is inactive: -1.34%.

Which “activity, negative = inhibition” value does the source give for `CN(C)/C=C/C(=O)c1c(F)cccc1F` here?
Its value is inactive: 8.54%.

With `CCC(=O)N1CCc2cc(S(=O)(=O)NC(CC(C)C)C(=O)NCCc3cccc(C)c3)ccc21` (centres undefined) as the compound, how does the Potency read?
The Potency was inconclusive: 35.5 µM [inhibitor, single point].

With `CC1CN(C(=O)CN2C(=O)c3ccccc3C2=O)CC(C)O1` (centres undefined) as the compound, how does the Potency read?
The Potency was inconclusive: 1.41 µM [inhibitor, partial curve].

For `O=C(CSc1nc2ccc(Cl)cc2[nH]1)NC1CCCc2ccccc21` (centres undefined), which Potency is on record?
The Potency was inconclusive: 20 µM [inhibitor, single point].

With `COc1ccc(OC)c(CNS(=O)(=O)c2ccc3[nH]c4c(c3c2)CCCCC4)c1` as the compound, how does the Potency read?
The Potency was inconclusive: 22.4 µM [inhibitor, single point].

With `CC(=O)N1CCN(c2ccc([N+](=O)[O-])c(-n3nc(C)cc3C)c2)CC1` as the compound, how does the “activity, negative = inhibition” value read?
The value was inactive: 22.6%.

With `COC(=O)c1ccc(S(=O)(=O)N(Cc2ccccc2)Cc2ccccc2)n1C` as the compound, how does the Potency read?
Its Potency is inconclusive: 5.62 µM [inhibitor, single point].

For `CC(=NNC(=O)c1ccncc1)c1cccc(Br)c1`, which “activity, negative = inhibition” value is on record?
The value was inactive: 10%.

For `COC(=O)c1ccc(N2NC(=O)/C(=C/c3cc(OC)c(OC)c(OC)c3)C2=O)cc1`, which “activity, negative = inhibition” value is on record?
The value was inactive: 2.72%.

For `O=C(CN1CCN(c2ccc(C(F)(F)F)cn2)CC1)NCc1ccc2c(c1)OCO2`, which Potency is on record?
The Potency was inconclusive: 35.5 µM [inhibitor, single point].

Which “activity, negative = inhibition” value does the source give for `CC(=O)Nc1cnc(-c2cccc(C(=O)N3CCOCC3)c2)cn1` here?
The value was inactive: -9.3%.

Which Potency does the source give for `COc1ccc(-c2[nH]ncc2CN2CCC(C(=O)c3ccc(F)cc3)CC2)cc1` here?
The Potency was inconclusive: 35.5 µM [inhibitor, single point].

For `CCCc1nc2c3ccccc3ccn2c1CC(C)(C)C`, which Potency is on record?
The Potency was inconclusive: 10 µM [inhibitor, partial curve].

With `COC(=O)c1cc(S(=O)(=O)N2CCN(c3ccc(OC)cc3)CC2)c[nH]1` as the compound, how does the Potency read?
Its Potency is inconclusive: 0.355 µM [inhibitor, full curve, poor fit].

With `COCCNC(=O)C1(C)CCCN(Cc2ccc3ccccc3c2Br)C1` (centres undefined) as the compound, how does the Potency read?
Its Potency is inconclusive: 35.5 µM [inhibitor, single point].

For `CC(OC(=O)CCNS(=O)(=O)c1cccs1)C(=O)Nc1ccc(S(N)(=O)=O)cc1` (centres undefined), which “activity, negative = inhibition” value is on record?
Its value is inactive: 0.911%.

Which “activity, negative = inhibition” value does the source give for `C=CCN(CC=C)S(=O)(=O)c1ccc(F)cc1` here?
Its value is inactive: -0.184%.

For `CC1(C)Cc2c(c(N3CCOCC3)nc3snc(N)c23)CO1`, which Potency is on record?
Its Potency is active: 10 µM.

For `CCOC(=O)N(C(=O)c1ccccc1)c1ccccc1`, which Potency is on record?
Its Potency is inconclusive: 11.2 µM [inhibitor, single point].

With `O=C(Nc1cccc(-c2nn[nH]n2)c1)c1csc2c1CCCC2` as the compound, how does the Potency read?
The Potency was inconclusive: 2.82 µM [inhibitor, full curve, poor fit].

Which Potency does the source give for `C=CCN(CC=C)C(=S)NC(=O)c1ccc([N+](=O)[O-])cc1` here?
Its Potency is inconclusive: 0.447 µM [inhibitor, full curve, poor fit].

With `CCCOc1ccc(-c2nnc(-c3cccs3)o2)cc1` as the compound, how does the “activity, negative = inhibition” value read?
Its value is inactive: 3.5%.

For `O=C(C[n+]1ccccc1)N/N=C/c1cc(Br)ccc1O`, which “activity, negative = inhibition” value is on record?
The value was inactive: 5.13%.

With `Cc1ccc(NC(=O)CSc2ncc(S(=O)(=O)c3ccc(C(C)C)cc3)c(=O)[nH]2)cc1C` as the compound, how does the “activity, negative = inhibition” value read?
The value was inactive: -13.5%.

For `CC(C)Oc1ccc(CNS(=O)(=O)c2ccc3c(c2)C(C)(C)C(=O)N3C)cc1`, which Potency is on record?
The Potency was inconclusive: 20 µM [inhibitor, single point].

With `O=C(O)c1ccc(N=Nc2c(-c3ccccc3)[nH]oc2=O)cc1` as the compound, how does the “activity, negative = inhibition” value read?
Its value is inactive: 2.96%.

With `CCCCCOC(=O)c1ccc(NC(=O)c2ccco2)cc1` as the compound, how does the Potency read?
The Potency was inconclusive: 7.08 µM [inhibitor, partial curve, poor fit].

Which Potency does the source give for `Cc1ccc(C(=O)c2cn(Cc3cccc(C)c3)c3nc(C)ccc3c2=O)cc1` here?
Its Potency is inconclusive: 0.112 µM [inhibitor, full curve, poor fit].

With `Cc1ccc(-n2c(C)cc(C(=O)CSc3nncs3)c2C)cc1` as the compound, how does the “activity, negative = inhibition” value read?
The value was inactive: -19.4%.

For `NNC(=O)Nc1cccc(C(F)(F)F)c1`, which “activity, negative = inhibition” value is on record?
Its value is inactive: 13.6%.

With `COc1ccc(NC(=O)C2Cc3c(-c4ccccc4Oc4ccccc4)ccnc3O2)cc1OC` (centres undefined) as the compound, how does the Potency read?
Its Potency is inconclusive: 35.5 µM [inhibitor, single point].

With `C=CCc1cccc(CNc2nc3ccccc3n2CCC)c1O` as the compound, how does the Potency read?
Its Potency is inconclusive: 25.1 µM [inhibitor, partial curve, poor fit].

With `Nc1ncnc(Sc2ncccn2)c1[N+](=O)[O-]` as the compound, how does the Potency read?
The Potency was active: 10 µM.

Which Potency does the source give for `Cc1cc(C(=O)OCC(=O)NCc2ccco2)c(C)n1-c1ccccc1` here?
Its Potency is inconclusive: 10 µM [inhibitor, partial curve].

For `CN1CCN(C(=O)/C(=C/c2ccc([N+](=O)[O-])cc2)NC(=O)c2ccccc2)CC1`, which “activity, negative = inhibition” value is on record?
Its value is inactive: 3.85%.

Which “activity, negative = inhibition” value does the source give for `CCCN(CCC)C(=O)Cn1nnc2sc(-c3ccccc3)cc2c1=O` here?
Its value is inactive: -11.7%.

Which “activity, negative = inhibition” value does the source give for `CCCC(=O)NCCCCNC(=O)CCC` here?
The value was inactive: 0%.

With `Cc1cc(Br)ccc1OCCCCN1CCC(C)CC1` as the compound, how does the Potency read?
Its Potency is inconclusive: 35.5 µM [inhibitor, single point].

Which Potency does the source give for `CSC1=NSC2=NC(=O)/C(=C\c3cccs3)C(=N)N12` here?
The Potency was inconclusive: 35.5 µM [inhibitor, single point].

For `COc1ccc(CNC(=O)CCC2N=C3c4ccccc4N=C(SCc4cccc(F)c4)N3C2=O)cc1` (centres undefined), which Potency is on record?
The Potency was inconclusive: 35.5 µM [inhibitor, single point].

Which Potency does the source give for `CC(=O)N1CCCc2cc(S(=O)(=O)NCc3cccc(C)c3)ccc21` here?
Its Potency is inconclusive: 8.91 µM [inhibitor, partial curve, poor fit].

For `CSc1ccc(/C=C(\C#N)C(=O)NC2CCCCC2C)cc1` (centres undefined), which Potency is on record?
The Potency was inconclusive: 35.5 µM [inhibitor, single point].

Which Potency does the source give for `CC(C)n1c(-c2ccc(N(C)C)cc2)nc2ccccc21` here?
Its Potency is inconclusive: 14.1 µM [inhibitor, partial curve, poor fit].

For `O=C(COC(=O)c1c2ccccc2cc2ccccc12)Nc1ncc(C(F)(F)F)cc1Cl`, which Potency is on record?
Its Potency is inconclusive: 0.112 µM [inhibitor, full curve, poor fit].

With `Cc1ccc(S(=O)(=O)N2C[C@H]3[C@H]4C(=O)N(Cc5ccccc5)C(=O)[C@H]4CC(=O)[C@H]3[C@@H]2c2cccc3ccccc23)cc1` as the compound, how does the Potency read?
Its Potency is inconclusive: 35.5 µM [inhibitor, single point].

With `O=C(NCc1ccco1)c1ccc(=O)[nH]n1` as the compound, how does the Potency read?
The Potency was inconclusive: 35.5 µM [inhibitor, single point].

Which Potency does the source give for `COC(=O)c1ccccc1NC(=O)C(C)Oc1ccccc1` (centres undefined) here?
The Potency was inconclusive: 35.5 µM [inhibitor, single point].

With `O=C(NC1CCN(Cc2ccccc2)CC1)c1cccc(S(=O)(=O)Nc2ccc(Br)cc2)c1` as the compound, how does the Potency read?
Its Potency is inconclusive: 2 µM [inhibitor, full curve, poor fit].

Which Potency does the source give for `CCC(C)c1ccccc1OCCCNC1CCCC1` (centres undefined) here?
The Potency was inconclusive: 17.8 µM [inhibitor, single point].

With `CC(C)COP(=O)(OCC(C)C)C(Nc1ccccc1)c1ccc2c(c1)OCO2` (centres undefined) as the compound, how does the Potency read?
Its Potency is inconclusive: 15.8 µM [inhibitor, single point].
